Data: patent EP0490919B1, “CYTOPROTECTIVE COMPOUNDS BEARING UNSATURATED HYDROCARBON GROUPS HAVING 16 TO 20 CARBON ATOMS” (VIRGINIA COMMONWEALTH UNIVERSITY, priority 1989, dated 1991)
Read-outs that look alike come from different tables or passages of the source.

Tests used:
[1] = tested on: PLA2 activities derived from human platelets and human polymorphonuclear leucocytes (PMNs); settings: human platelet and PMN PLA2; all three acids to approximately the same extent; cited from earlier work
[2] = tested on: PLA2 activities derived from human platelets and human polymorphonuclear leucocytes (PMNs); experiment: In vitro PLA2 activity inhibition by fatty acids
[3] = tested on: Ca^++-dependent PLA2s

Row | Compound | inhibition of in vitro PLA2 activity [1] | also measured
1 | CCCCC/C=C\C/C=C\C/C=C\C/C=C\CCCC(=O)O [arachidonic acid] | inhibited | –
2 | CCCCCCC(O)C/C=C\CCCCCCCC(=O)O (stereo not drawn) [ricinoleic acid, 12-hydroxy-oleic acid] | – | inhibition of in vitro PLA2 activity ([2]; 12-hydroxylation of oleic acid, recent studies): non-inhibitory
3 | CCCCC[C@H](O)/C=C/C1=C(CCCCCCC(=O)O)C(=O)CC1 [PGB1, prostaglandin B1] | – | less inhibitory than the precursor arachidonic acid ([2]; PLA2 inhibition relative to arachidonic acid): at least 2 orders of magnitude; PLA2 inhibitory activity [3]: not inhibitory
4 | CCCCC/C=C\C/C=C\CCCCCCCC(=O)O [linoleic acid] | inhibited | –
5 | CCCCCCCC/C=C\CCCCCCCC(=O)O [oleic acid] | inhibited | –
